Experimental data published in PubChem BioAssay AID602310 (National Center for Advancing Translational Sciences (NCATS), 2012).
Screen size: about 410,000 compounds; about 310 (0.076%) were called active. Inconclusive means that the source gave no clear call. Such entries were picked first, then a sample of the others. The call rests on the fitted dose curve; in most records, active means well fitted curve in the direction sought with a large enough effect; inconclusive means small, poorly fitted or top-dose-only effect; inactive means flat fitted curve, though single readings scatter. Potencies beside an inconclusive call are fits to weak or partial responses and may not hold up.

target: DNA dC->dU-editing enzyme APOBEC-3G (Homo sapiens) (UniProt Q9HC16); assay: qHTS for Inhibitors of Vif-A3G Interactions: qHTS; conditions: HeLa A3G-eYFP + Vif (tagged APOBEC3G with the HIV-1 protein that degrades it), YFP fluorescence, overnight; series mostly up to 46.1 µM; further: nearly all actives have a fitted effect of over 60% in size
Summary of the method: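 Read-out is eYFP fluorescence (Ex 488/Em 500-530) from Vif-expressing HeLa A3G-eYFP cells; more signal means A3G escaped Vif-mediated degradation. Cells plated overnight, compound pinned in, incubated overnight at 37 deg C.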
Potency means the concentration at half of the fitted maximal effect; tags describe the fitted curve by direction and shape.

UniProt Q9HC16, sequence (Q9HC16 whole entry, looked up): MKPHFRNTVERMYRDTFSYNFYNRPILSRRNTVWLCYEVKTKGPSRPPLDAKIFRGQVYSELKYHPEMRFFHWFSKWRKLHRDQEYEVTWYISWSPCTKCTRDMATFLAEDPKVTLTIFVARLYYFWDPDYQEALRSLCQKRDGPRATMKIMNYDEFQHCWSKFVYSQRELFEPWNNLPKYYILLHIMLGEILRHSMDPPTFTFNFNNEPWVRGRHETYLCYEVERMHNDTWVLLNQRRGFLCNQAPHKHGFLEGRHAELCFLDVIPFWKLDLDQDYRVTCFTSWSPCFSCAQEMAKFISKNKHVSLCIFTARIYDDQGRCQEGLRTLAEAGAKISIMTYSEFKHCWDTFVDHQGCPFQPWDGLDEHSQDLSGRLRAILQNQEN

| Structure (SMILES) | Potency |
| --- | --- |
| Cc1ccc(CNC(=O)c2c(Nc3c(C)cccc3C)sc(C(=O)c3ccccc3)c2N)cc1 | inconclusive: 3.16 µM [inhibitor, single point] |
| COc1ccccc1C(=O)Nc1ccc2c(c1)CN(C(=O)CSC)CC2 | inconclusive: 10 µM [inhibitor, partial curve] |
| C=C[C@@H]1c2cc(C)ccc2N(S(=O)(=O)c2ccc(C)cc2)[C@H](c2ccc(OC(C)=O)cc2)C1(C#N)C#N | inconclusive: 3.55 µM [inhibitor, single point] |
| c1ccc(-c2cccc(-c3ccccn3)n2)nc1 | inconclusive: 12.6 µM [inhibitor, partial curve] |
| O=[N+]([O-])c1nn(-c2ccccc2)n(O)c1=NCCc1ccccc1 | inconclusive: 15.8 µM [inhibitor, single point] |
| COc1cc(OC)c(OC)cc1/C=c1\[nH]c(=O)/c(=C/c2cc(OC)c(OC)cc2OC)[nH]c1=O | inconclusive: 1.41 µM [inhibitor, full curve, poor fit] |
| Cc1ccccc1Cn1nnc(C(=O)Nc2cccc(C)c2C)c1N | inconclusive: 12.6 µM [inhibitor, partial curve, poor fit] |
| COc1ccccc1Nc1c2c(nc3ccc(NC(=O)c4ccc(N(C)C)cc4)cc13)CCCC2 | inconclusive: 11.2 µM [inhibitor, partial curve, poor fit] |
| CCc1ccc(N2CC(C(=O)Nc3ccccc3N3CCCC3)CC2=O)cc1 (centres undefined) | inconclusive: 3.55 µM [inhibitor, partial curve] |
| CC1=C(C(N)=O)S(=O)(=O)c2ccccc21 | inactive |
| Cc1c(C(=O)OCCOC(C)C)[nH]c2c1C(=O)CC(c1ccco1)C2 (centres undefined) | inconclusive: 0.562 µM [inhibitor, full curve, poor fit] |
| COc1c(Cl)cc(C(=O)NN)cc1Cl | inconclusive: 2.51 µM [inhibitor, full curve, poor fit] |
| CCc1nnc(NC(=O)Cc2ccc(S(=O)(=O)N3CCCCC3)cc2)s1 | inconclusive: 25.1 µM [inhibitor, single point] |
| Cc1cc2nc(-c3ccc(SCC(=O)Nc4ccc(S(=O)(=O)N5CCCC5)cc4)nc3)[nH]c2cc1C | inactive |
| CCN1CCc2c(sc(NC(=O)c3ccc(S(=O)(=O)N(CC)c4ccccc4)cc3)c2C(N)=O)C1 | inconclusive: 3.16 µM [inhibitor, full curve, poor fit] |
| CC1(C)CC(=O)C2=C(C1)OC1=C(C(=O)CC(C)(C)C1)C2c1ccc(O)c([N+](=O)[O-])c1 | inactive |
| O=C(c1ccco1)N1N=C(c2cccs2)CC1c1ccccc1O (centres undefined) | inconclusive: 22.4 µM [inhibitor, single point] |
| Nc1nc(N)nc(-c2cc(F)ccc2O)n1 | inactive |
| CC(=O)Nc1cccc(C(=O)/C=C/c2ccc[nH]2)c1 | inactive |
| CCN(CC)c1ccc(C2C(C(N)=O)=C(C)Nc3nc(SCc4ccccc4Cl)nn32)cc1 (centres undefined) | inconclusive: 20 µM [inhibitor, single point] |
| CCOc1cc(/C=C2\N=C(SC(C)C(N)=O)N(c3ccc(OC(F)F)cc3)C2=O)ccc1O (centres undefined) | inconclusive: 17.8 µM [inhibitor, partial curve, poor fit] |
| Cn1cccc1/C=N/NC(=O)c1cc(-c2cccs2)nc2ccccc12 | inconclusive: 5.01 µM [inhibitor, partial curve] |

| Structure (SMILES) | Potency |
| --- | --- |
| COc1ccc2nc(N3C(=O)/C(=C/c4ccccc4)NC3=S)sc2c1 | active: 5.01 µM |
| CCC1CCCCN1CCCNC(=O)c1[nH]c2ccccc2c1Sc1ccc(Cl)cc1 (centres undefined) | inconclusive: 35.5 µM [inhibitor, single point] |
| CS(=O)(=O)Nc1ccc(C(=O)NCCSC2CCCCC2)cc1 | inactive |
| CC(=O)NC(c1cc(F)c2cccnc2c1O)C1CC1 (centres undefined) | inconclusive: 35.5 µM [inhibitor, single point] |
| CCOC(=O)CN1C=C(c2ccc3ccccc3n2)C(C[N+](=O)[O-])c2ccccc21 (centres undefined) | active: 12.6 µM |
| O=C(N/N=C/c1ccc2c(c1)OCO2)c1cc(-c2ccncc2)nc2ccccc12 | inconclusive: 1.41 µM [inhibitor, full curve] |
| Cc1cc(C)cc(NC(=S)/N=C(\N)Nc2nc(C)c3ccccc3n2)c1 | inactive |
| COc1cc(C2NC(=O)c3c(sc4c3CCN(C)C4)N2)cc(Br)c1OC(=O)c1ccc(C)cc1 (centres undefined) | inconclusive: 35.5 µM [inhibitor, single point] |
| CS(=O)(=O)Nc1ccc(-c2ccc(/C=C3\SC(N)=NC3=O)o2)cc1 | inactive |
| COc1cccc(CC2(CO)CCCN(Cc3[nH]c4ccc(C)cc4c3C)C2)c1 (centres undefined) | inconclusive: 35.5 µM [inhibitor, single point] |
| Cc1ccc(CNC(=O)c2ccc3c(c2)c(C)c(C)n3Cc2ccccc2)o1 | inconclusive: 5.01 µM [inhibitor, full curve] |
| CCOC(=O)C1C(=O)C=C(/C=C/c2ccc(N(C)C)cc2)CC1c1ccccc1 (centres undefined) | inconclusive: 35.5 µM [inhibitor, single point] |
| CC(=O)c1c(C)[nH]c(C(=O)N2CCN(c3cc(Cl)ccc3C)CC2)c1C | inconclusive: 2.24 µM [inhibitor, full curve] |
| CN(C)c1ccc(/C=C/c2nc3ccccc3s2)cc1 | inconclusive: 11.2 µM [inhibitor, partial curve, poor fit] |
| COc1ccccc1Cc1c(-c2ccc(Cl)cc2)nc2ccc(Br)cn12 | inconclusive: 25.1 µM [inhibitor, single point] |
| CCOc1ccc(S(=O)(=O)N2CCN=C2c2ccccc2)cc1 | inconclusive: 6.31 µM [inhibitor, partial curve, poor fit] |
| CCN(CC)C(=O)C1CCCN(c2ncnc3c2cnn3-c2cccc(C)c2)C1 (centres undefined) | inactive |
| COc1ccc(NC(=O)CN(C)C(=O)Cc2n[nH]c(=O)c3ccccc23)cc1 | inactive |
| CCn1c(SCc2ccc(C(=O)Nc3nccs3)cc2)nnc1-c1ccc(NC(C)=O)cc1 | inactive |
| CC1Cc2cc(S(=O)(=O)CCC(=O)NCc3ccc(Cl)cc3)ccc2N1C(=O)C1CC1 (centres undefined) | inconclusive: 11.2 µM [inhibitor, partial curve, poor fit] |
| CCn1c(C)cs/c1=N\S(=O)(=O)c1ccccc1 | inactive |
| O=C(c1ccccc1-c1ccccc1)N1CCN(c2ccccn2)CC1 | inconclusive: 2.24 µM [inhibitor, full curve, poor fit] |

| Structure (SMILES) | Potency |
| --- | --- |
| O=C(/C=C\c1ccc(-c2ccccc2)o1)c1ccccc1 | inconclusive: 22.4 µM [inhibitor, single point] |
| CCOc1ccc(Nc2nc(C)c(NC(=O)c3ccc(C)cc3)c(Nc3ccc(OCC)cc3)n2)cc1 | inactive |
| CN(C)/C=N/C1=C(C#N)C(c2cccs2)c2ccc3ccccc3c2O1 (centres undefined) | inconclusive: 1.26 µM [inhibitor, full curve] |
| COc1ccc(-c2csc3nc(C)nc(N4CCC(C)CC4)c23)cc1OC | inconclusive: 35.5 µM [inhibitor, single point] |
| Cc1ccc(C2Oc3ccccc3C3=C2C(c2cccs2)n2ncnc2N3)cc1 (centres undefined) | inconclusive: 3.55 µM [inhibitor, full curve, poor fit] |
| O=C(Nc1nc(-c2ccccn2)cs1)c1ccc(-c2ccccc2F)o1 | inconclusive: 35.5 µM [inhibitor, single point] |
| CCN(CC)c1ccc(/C=N/NC(=O)c2cccc(S(=O)(=O)Nc3ccccc3OC)c2)c(O)c1 | inactive |
| COc1cc(/C=C(/C(=O)c2cccs2)c2nc3ccccc3[nH]2)cc(OC)c1O | inconclusive: 7.08 µM [inhibitor, partial curve, poor fit] |
| Cc1ccc(NC(=O)c2cc3nc(-c4ccc5c(c4)OCO5)cc(C(F)(F)F)n3n2)cc1Cl | inactive |
| NC(=O)Nc1ccc(/C=C2\C=Cc3ccccc32)cc1 | inconclusive: 35.5 µM [inhibitor, single point] |
| Cc1ccc2c(=O)n3c(nc2c1)C(Cc1ccc(O)cc1)NC(=O)c1cc2ccccc2cc1-3 (centres undefined) | inconclusive: 3.55 µM [inhibitor, full curve, poor fit] |
| CC1(C(=O)NCc2cccs2)Cc2c(-c3cccc(C(F)(F)F)c3)ccnc2O1 (centres undefined) | inconclusive: 3.16 µM [inhibitor, partial curve, poor fit] |
| COc1ccc2nc3ccccc3nc2c1NC(=O)c1ccc(Br)cc1 | inconclusive: 5.62 µM [inhibitor, single point] |
| COc1cc(OC)cc(C(=O)Nc2ccc(N3CCN(C(=O)c4cccs4)CC3)cc2)c1 | inconclusive: 12.6 µM [inhibitor, partial curve] |
| CCn1cc(C(=O)N2CCN(c3cc(Cl)ccc3C)CC2)c(=O)c2cc(S(=O)(=O)N3CCOCC3)ccc21 | inactive |
| COC(=O)c1[nH]c2c(c1C)C(=O)CC(c1cccc(OC)c1)C2 (centres undefined) | inconclusive: 0.631 µM [inhibitor, full curve, poor fit] |
| COc1ccc(N2N=NN(C(C)C)C2=C(Cl)c2nnnn2-c2ccc(OC)cc2)cc1 | inconclusive: 35.5 µM [inhibitor, single point] |
| O=c1c2ccccc2nc(/C=C/c2c[nH]c3ccccc23)n1CCO | inconclusive: 35.5 µM [inhibitor, single point] |
| NC(=S)N=Nc1c(O)n(Cc2ccc(Br)cc2)c2ccccc12 | inconclusive: 1.78 µM [inhibitor, full curve, poor fit] |
| COc1ccc(C(=O)C(=NN)c2ccccc2)cc1 | inactive |
